Measured values as given in US20250353917A1 (SYSTIMMUNE, published 2025).

B1: SI-55P9 (other)
heavy: EIVLTQSPSTLSVSPGERATFSCRASQSIGTNIHWYQQKPGKPPRLLIKYASESISGIPDRFSGSGSGTEFTLTISSVQSEDFAVYYCQQNNNWPTTFGPGTKLTVLGGGGSGGGGSGGGGSGGGGSQVQLQQSGPGLVKPSETLSITCTVSGFSLTNYGVHWIRQAPGKGLEWLGVIWSGGNTDYNTPFTSRFTITKDNSKNQVYFKLRSVRADDTAIYYCARALTYYDYEFAYWGQGTLVTVSSGGGGSGGGGSEVQLVESGGGLVQPGGSLRLSCAASGFTISTNAMSWVRQAPGKGLEWIGVITGRDITYYASWAKGRFTISRDNSKNTLYLQMNSLRAEDTAVYYCARDGGSSAITSNNIWGQGTLVTVSSASTKGPSVFPLAPSSKSTSGGTAALGCLVKDYFPEPVTVSWNSGALTSGVHTFPAVLQSSGLYSLSSVVTVPSSSLGTQTYICNVNHKPSNTKVDKRV[human IgG1 Fc with changes left out here]GGGGSGGGGSEVQLLESGGGLVQPGGSLRLSCAASGFSFSSGYDMCWVRQAPGKGLEWIACIAAGSAGITYDANWAKGRFTISRDNSKNTLYLQMNSLRAEDTAVYYCARSAFSFDYAMDLWGQGTLVTVSSGGGGSGGGGSGGGGSGGGGSDIQMTQSPSTLSASVGDRVTITCQASQSISSHLNWYQQKPGKAPKLLIYKASTLASGVPSRFSGSGSGTEFTLTISSLQPDDFATYYCQQGYSWGNVDNVFGGGTKVEIKGGGGSGGGGSGRSLVESGGGLVQPGGSLRLSCTASGFTISSYHMQWVRQAPGKGLEYIGTISSGGNVYYASSARGRFTISRPSSKNTVDLQMNSLRAEDTAVYYCARDSGYSDPMWGQGTLVTVSSGGGGSGGGGSGGGGSGGGGSDVVMTQSPSSVSASVGDRVTITCQASQNIRTYLSWYQQKPGKAPKLLIYAAANLASGVPSRFSGSGSGTDFTLTISDLEPGDAATYYCQSTYLGTDYVGGAFGGGTKVEIK
light: ENVLTQSPASLSASPGERVTITCSASSSVSYMHWYQQKPGQAPKLWIYDTSKLASGVPSRFSGSGSGNDHTLTISSMEPEDFATYYCFQGSVYPFTFGQGTKVTVLGGGGSGGGGSGGGGSGGGGSQVTLKESGPGLVQPGQTLRLTCAFSGFSLSTSGMGVGWIRQPPGKGLEWLAHIWWDDDKRYNPALKSRLTISKDTSKNQVYLQMNSLDAEDTAVYYCARMELWSYYFDYWGQGTLVTVSSGGGGSGGGGSDVVMTQSPSTLSASVGDRVTINCQASESISSWLAWYQQKPGKAPKLLIYEASKLASGVPSRFSGSGSGTEFTLTISSLQPDDFATYYCQGYFYFISRTYVNSFGGGTKVEIKRTVAAPSVFIFPPSDEQLKSGTASVVCLLNNFYPREAKVQWKVDNALQSGNSQESVTEQDSKDSTYSLSSTLTLSKADYEKHKVYACEVTHQGLSSPVTKSFNRGEC
notes: Penta-specific GNC antibody: αEGFR H7 scFv (D1), αCD3 (D2 Fab), αPD-L1 (D3), α4-1BB (D4), αCD19 (D6); also called penta-GNC antibody, H7 scFv
B2: SI-77P1 (other)
heavy: EIVMTQSPSTLSASVGDRVIITCQASESISSWLAWYQQKPGKAPKLLIYEASKLASGVPSRFSGSGSGAEFTLTISSLQPDDFATYYCQGYFYFISRTYVNSFGQGTKLTVLGGGGSGGGGSGGGGSGGGGSEVQLVESGGGLVQPGGSLRLSCAASGFTISTNAMSWVRQAPGKGLEWVGVITGRDITYYASWAKGRFTISRDTSKNTVYLQMNSLRAEDTAVYYCARDGGSSAITSNNIWGQGTLVTVSSGGGGSGGGGSQVQLQQSGPGLVKPSETLSITCTVSGFSLTNYGVHWIRQAPGKGLEWLGVIWSGGNTDYNTPFTSRFTITKDNSKNQVYFKLRSVRADDTAIYYCARALTYYDYEFAYWGQGTLVTVSSASTKGPSVFPLAPSSKSTSGGTAALGCLVKDYFPEPVTVSWNSGALTSGVHTFPAVLQSSGLYSLSSVVTVPSSSLGTQTYICNVNHKPSNTKVDKRV[human IgG1 Fc with changes left out here]GGGGSGGGGSEVQLLESGGGLVQPGGSLRLSCAASGFSFSSGYDMCWVRQAPGKGLEWIACIAAGSAGITYDANWAKGRFTISRDNSKNTLYLQMNSLRAEDTAVYYCARSAFSFDYAMDLWGQGTLVTVSSGGGGSGGGGSGGGGSGGGGSDIQMTQSPSTLSASVGDRVTITCQASQSISSHLNWYQQKPGKAPKLLIYKASTLASGVPSRFSGSGSGTEFTLTISSLQPDDFATYYCQQGYSWGNVDNVFGGGTKVEIKGGGGSGGGGSGRSLVESGGGLVQPGGSLRLSCTASGFTISSYHMQWVRQAPGKGLEYIGTISSGGNVYYASSARGRFTISRPSSKNTVDLQMNSLRAEDTAVYYCARDSGYSDPMWGQGTLVTVSSGGGGSGGGGSGGGGSGGGGSDVVMTQSPSSVSASVGDRVTITCQASQNIRTYLSWYQQKPGKAPKLLIYAAANLASGVPSRFSGSGSGTDFTLTISDLEPGDAATYYCQSTYLGTDYVGGAFGGGTKVEIK
light: ENVLTQSPASLSASPGERVTITCSASSSVSYMHWYQQKPGQAPKLWIYDTSKLASGVPSRFSGSGSGNDHTLTISSMEPEDFATYYCFQGSVYPFTFGQGTKVTVLGGGGSGGGGSGGGGSGGGGSQVTLKESGPGLVQPGQTLSLTCAFSGFSLSTSGMGVGWIRQPPGKGLEWLAHIWWDDDKRYNPALKSRLTISKDTSKNQVYLQMNSLDAEDTAVYYCARMELWSYYFDYWGQGTLVTVSSGGGGSGGGGSEIVLTQSPSTLSVSPGERATFSCRASQSIGTNIHWYQQKPGKPPRLLIKYASESISGIPDRFSGSGSGTEFTLTISSVQSEDFAVYYCQQNNNWPTTFGPGTKLTVLRTVAAPSVFIFPPSDEQLKSGTASVVCLLNNFYPREAKVQWKVDNALQSGNSQESVTEQDSKDSTYSLSSTLTLSKADYEKHKVYACEVTHQGLSSPVTKSFNRGEC
B3: SI-55P3 (other)
heavy: EIVMTQSPSTLSASVGDRVIITCRASQSIGTNIHWYQQKPGKAPKLLIYYASESISGIPSRFSGSGSGAEFTLTISSLQPDDFATYYCQQNNNWPTTFGQGTKLTVLGGGGSGGGGSGGGGSGGGGSEVQLVESGGGLVQPGGSLRLSCSVSGFSLTNYGVHWVRQAPGKGLEWVGVIWSGGNTDYNTPFTSRFTISRDTSKNTVYLQMNSLRAEDTAVYYCARALTYYDYEFAYWGQGTLVTVSSGGGGSGGGGSQVQLQESGGRLVQPGEPLSLTCKTSGIDLSSNAIGWVRQAPGKGLEWIGVIFGSGNTYYASWAKGRFTISRSTSTVYLKMNSLRSEDTAIYYCARGGYSSDIWGQGTLVTVSSASTKGPSVFPLAPSSKSTSGGTAALGCLVKDYFPEPVTVSWNSGALTSGVHTFPAVLQSSGLYSLSSVVTVPSSSLGTQTYICNVNHKPSNTKVDKRV[human IgG1 Fc with changes left out here]GGGGSGGGGSEVQLLESGGGLVQPGGSLRLSCAASGFSFSSGYDMCWVRQAPGKGLEWIACIAAGSAGITYDANWAKGRFTISRDNSKNTLYLQMNSLRAEDTAVYYCARSAFSFDYAMDLWGQGTLVTVSSGGGGSGGGGSGGGGSGGGGSDIQMTQSPSTLSASVGDRVTITCQASQSISSHLNWYQQKPGKAPKLLIYKASTLASGVPSRFSGSGSGTEFTLTISSLQPDDFATYYCQQGYSWGNVDNVFGGGTKVEIKGGGGSGGGGSGRSLVESGGGLVQPGGSLRLSCTASGFTISSYHMQWVRQAPGKGLEYIGTISSGGNVYYASSARGRFTISRPSSKNTVDLQMNSLRAEDTAVYYCARDSGYSDPMWGQGTLVTVSSGGGGSGGGGSGGGGSGGGGSDVVMTQSPSSVSASVGDRVTITCQASQNIRTYLSWYQQKPGKAPKLLIYAAANLASGVPSRFSGSGSGTDFTLTISDLEPGDAATYYCQSTYLGTDYVGGAFGGGTKVEIK
light: ENVLTQSPASLSASPGERVTITCSASSSVSYMHWYQQKPGQAPKLWIYDTSKLASGVPSRFSGSGSGNDHTLTISSMEPEDFATYYCFQGSVYPFTFGQGTKVTVLGGGGSGGGGSGGGGSGGGGSQVTLKESGPGLVQPGQTLRLTCAFSGFSLSTSGMGVGWIRQPPGKGLEWLAHIWWDDDKRYNPALKSRLTISKDTSKNQVYLQMNSLDAEDTAVYYCARMELWSYYFDYWGQGTLVTVSSGGGGSGGGGSDPVLTQSPSSLSASVGDRVTISCQSSQSVAKNNNLAWFQQKPGQAPKLLIYSASTLAAGVPSRFSGSGSGTDFTLTISSVQPEDFATYYCSARDSGNIQSFGGGTKVEIKRTVAAPSVFIFPPSDEQLKSGTASVVCLLNNFYPREAKVQWKVDNALQSGNSQESVTEQDSKDSTYSLSSTLTLSKADYEKHKVYACEVTHQGLSSPVTKSFNRGEC
notes: Penta-specific GNC antibody: αEGFR H1 scFv (D1), αCD3 (D2 Fab), αPD-L1 (D3), α4-1BB (D4), αCD19 (D6); also called penta-GNC antibody, H1 scFv
B4: SI-79P2 (other)
heavy: EIVLTQSPSTLSVSPGERATFSCRASQSIGTNIHWYQQKPGKPPRLLIKYASESISGIPDRFSGSGSGTEFTLTISSVQSEDFAVYYCQQNNNWPTTFGPGTKLELKGGGGSGGGGSGGGGSGGGGSQVQLQQSGPGLVKPSETLSITCTVSGFSLTNYGVHWIRQAPGKGLEWLGVIWSGGNTDYNTPFTSRFTITKDNSKNQVYFKLRSVRADDTAIYYCARALTYYDYEFAYWGQGTLVTVSSGGGGSGGGGSQVQLQESGGRLVQPGEPLSLTCKTSGIDLSSNAIGWVRQAPGKGLEWIGVIFGSGNTYYASWAKGRFTISRSTSTVYLKMNSLRSEDTAIYYCARGGYSSDIWGQGTLVTVSSASTKGPSVFPLAPSSKSTSGGTAALGCLVKDYFPEPVTVSWNSGALTSGVHTFPAVLQSSGLYSLSSVVTVPSSSLGTQTYICNVNHKPSNTKVDKRV[human IgG1 Fc with changes left out here]GGGGSGGGGSEVQLLESGGGLVQPGGSLRLSCAASGFSFSSGYDMCWVRQAPGKGLEWIACIAAGSAGITYDANWAKGRFTISRDNSKNTLYLQMNSLRAEDTAVYYCARSAFSFDYAMDLWGQGTLVTVSSGGGGSGGGGSGGGGSGGGGSDIQMTQSPSTLSASVGDRVTITCQASQSISSHLNWYQQKPGKAPKLLIYKASTLASGVPSRFSGSGSGTEFTLTISSLQPDDFATYYCQQGYSWGNVDNVFGGGTKVEIKGGGGSGGGGSGRSLVESGGGLVQPGGSLRLSCTASGFTISSYHMQWVRQAPGKGLEYIGTISSGGNVYYASSARGRFTISRPSSKNTVDLQMNSLRAEDTAVYYCARDSGYSDPMWGQGTLVTVSSGGGGSGGGGSGGGGSGGGGSDVVMTQSPSSVSASVGDRVTITCQASQNIRTYLSWYQQKPGKAPKLLIYAAANLASGVPSRFSGSGSGTDFTLTISDLEPGDAATYYCQSTYLGTDYVGGAFGGGTKVEIK
light: B3 light
notes: Penta-specific GNC antibody: αEGFR H4 scFv (D1), αCD3 (D2 Fab), αPD-L1 (D3), α4-1BB (D4), αCD19 (D6); also called penta-GNC antibody, H4 scFv

How the values were obtained:
His-tagged human EGFR [1] = target: T1, His-tagged human EGFR (human, UniProt P00533 in part, limits assumed); test: BLI (Octet), antibody on AHC sensors, His-tagged human EGFR in solution, 1:1 global fit
T1 construct: also called huEGFR

EGFR on BxPC-3 cells = EGFR on BxPC-3 cells (UniProt P00533); test: cell-based or functional assay
His-tagged human EGFR [2] = target: T1, His-tagged human EGFR; test: BLI (Octet), antibody on AHC sensors, His-tagged human EGFR in solution, 1:1 global fit; remark: listed apart in the source

Binder	Kd (His-tagged human EGFR [1]) [nM]	TDCC EC50 (pM) (EGFR on BxPC-3 cells)	Kd (His-tagged human EGFR [2]) [nM]	koff (His-tagged human EGFR [2]) [s⁻¹]	kon (His-tagged human EGFR [2]) [M⁻¹ s⁻¹]
B1	6.88	0.573	6.88	0.00204	297000
B2	–	0.0826	–	–	–
B3	18.1	–	18.1	0.0109	601000
B4	4.3	–	4.3	0.00141	328000

Like-named read-outs stand apart in the source and are kept apart here.
